Data: publication PMC7035337
No constants are given. Whether binding was seen depends on the method and setting. Some results given as binding are weak or reduced against the parent protein; the word gives no strength.

By UniProt entry, the sequences of proteins in these tests, tags left out.
UniProt P08670: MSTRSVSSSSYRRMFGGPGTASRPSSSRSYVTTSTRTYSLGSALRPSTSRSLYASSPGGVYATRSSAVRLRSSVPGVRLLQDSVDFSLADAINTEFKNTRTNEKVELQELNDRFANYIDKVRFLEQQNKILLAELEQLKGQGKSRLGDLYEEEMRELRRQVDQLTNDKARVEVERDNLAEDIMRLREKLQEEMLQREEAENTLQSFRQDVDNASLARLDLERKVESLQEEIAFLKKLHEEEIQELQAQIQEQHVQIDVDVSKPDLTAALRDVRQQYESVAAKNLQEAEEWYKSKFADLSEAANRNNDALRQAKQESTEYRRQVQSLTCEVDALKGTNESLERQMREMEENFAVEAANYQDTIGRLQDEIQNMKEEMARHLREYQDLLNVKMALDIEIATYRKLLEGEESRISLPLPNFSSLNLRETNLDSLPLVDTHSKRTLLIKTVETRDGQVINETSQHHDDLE

Tests used:
Test in all cases: NMR titration; 15N-HSQC peak intensities of 100 µM 15N-labelled linker after adding unlabelled vimentinFL (200 µM in Supplementary Figure 8); 20 mM Tris-Cl pH 7.0, 1 mM DTT, no salt; 298 K; both purified
[1] = molecular target: periplakin linker domain R1655E/R1656E (human) (UniProt O60437)
[2] = molecular target: T1, periplakin linker domain, wild-type (residues K1646-K1756) (human)
T1 sequence: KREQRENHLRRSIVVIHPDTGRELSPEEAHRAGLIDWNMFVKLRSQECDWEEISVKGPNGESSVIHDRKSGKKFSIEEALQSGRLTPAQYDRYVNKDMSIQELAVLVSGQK

[3] = molecular target: T2, desmoplakin linker domain, wild-type (residues Q2454-N2565) (human)
T2 sequence: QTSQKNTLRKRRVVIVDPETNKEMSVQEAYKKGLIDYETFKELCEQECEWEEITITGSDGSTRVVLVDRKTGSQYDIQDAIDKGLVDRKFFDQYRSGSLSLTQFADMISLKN

binding [2]: binds
binding [3]: binds
Substance: full-length vimentin (vimentinFL, residues M1-E466) (from UniProt P08670 1-466)
binding [1]: no binding (tested: 200 µM vimentinFL with 100 µM linker)
